Sequences and labels used below:
T1: RBFOX1 RRM (Homo sapiens, UniProt Q9NWB1 109-208)
T1 sequence: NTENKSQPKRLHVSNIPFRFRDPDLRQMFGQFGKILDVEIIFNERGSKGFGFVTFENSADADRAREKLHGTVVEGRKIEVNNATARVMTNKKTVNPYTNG

B1: AGAAGGU (DNA:RNA)
RNA: GGGAGACCGGAAUUCAGAUUGUCCAGAAGGUUUAAAUCCCGUCGUAGCCACCA
DNA 1: CAATCTGAATTCCGGTCTCCC
DNA 2: TGGTGGCTACGACGGGATT
B2: UCAGUGU (DNA:RNA)
RNA: B1 RNA with A25U, G26C, A28G, G29U
DNA 1: CAATCTGAATTCCGGTCTCCC
DNA 2: TGGTGGCTACGACGGGATT
B3: UCCCGCU (DNA:RNA)
RNA: B1 RNA with A25U, G26C, A27C, A28C, G30C
DNA 1: CAATCTGAATTCCGGTCTCCC
DNA 2: TGGTGGCTACGACGGGATT
B4: CGCAGCA (DNA:RNA)
RNA: B1 RNA with A25C, A27C, G30C, U31A
DNA 1: CAATCTGAATTCCGGTCTCCC
DNA 2: TGGTGGCTACGACGGGATT
B5: CUCGAUC (DNA:RNA)
RNA: GGGAGACCGGAAUUCAGAUUGUCCCUCGAUCUUAAAUCCCGUCGUAGCCACCA
DNA 1: CAATCTGAATTCCGGTCTCCC
DNA 2: TGGTGGCTACGACGGGATT
B6: AGAACGU (DNA:RNA)
RNA: B1 RNA with G29C
DNA 1: CAATCTGAATTCCGGTCTCCC
DNA 2: TGGTGGCTACGACGGGATT
B7: GGUUACG (DNA:RNA)
RNA: B1 RNA with A25G, A27U, A28U, G29A, G30C, U31G
DNA 1: CAATCTGAATTCCGGTCTCCC
DNA 2: TGGTGGCTACGACGGGATT
B8: UUACGCG (DNA:RNA)
RNA: B1 RNA with A25U, G26U, A28C, G30C, U31G
DNA 1: CAATCTGAATTCCGGTCTCCC
DNA 2: TGGTGGCTACGACGGGATT
B9: AUUUCUC (DNA:RNA)
RNA: B5 RNA with C25A, C27U, G28U, A29C
DNA 1: CAATCTGAATTCCGGTCTCCC
DNA 2: TGGTGGCTACGACGGGATT
B10: AAUGACC (DNA:RNA)
RNA: B5 RNA with C25A, U26A, C27U, U30C
DNA 1: CAATCTGAATTCCGGTCTCCC
DNA 2: TGGTGGCTACGACGGGATT
B11: AUUGUCU (DNA:RNA)
RNA: B1 RNA with G26U, A27U, A28G, G29U, G30C
DNA 1: CAATCTGAATTCCGGTCTCCC
DNA 2: TGGTGGCTACGACGGGATT
B12: AGGCUGG (DNA:RNA)
RNA: B1 RNA with A27G, A28C, G29U, U31G
DNA 1: CAATCTGAATTCCGGTCTCCC
DNA 2: TGGTGGCTACGACGGGATT
B13: UCGUUUG (DNA:RNA)
RNA: B5 RNA with C25U, U26C, C27G, G28U, A29U, C31G
DNA 1: CAATCTGAATTCCGGTCTCCC
DNA 2: TGGTGGCTACGACGGGATT
B14: GUUGAAC (DNA:RNA)
RNA: B5 RNA with C25G, C27U, U30A
DNA 1: CAATCTGAATTCCGGTCTCCC
DNA 2: TGGTGGCTACGACGGGATT
B15: CGGCAAG (DNA:RNA)
RNA: B5 RNA with U26G, C27G, G28C, U30A, C31G
DNA 1: CAATCTGAATTCCGGTCTCCC
DNA 2: TGGTGGCTACGACGGGATT
B16: GAUCUUG (DNA:RNA)
RNA: B5 RNA with C25G, U26A, C27U, G28C, A29U, C31G
DNA 1: CAATCTGAATTCCGGTCTCCC
DNA 2: TGGTGGCTACGACGGGATT
B17: AAUCCGG (DNA:RNA)
RNA: B1 RNA with G26A, A27U, A28C, G29C, U31G
DNA 1: CAATCTGAATTCCGGTCTCCC
DNA 2: TGGTGGCTACGACGGGATT
B18: AGUAAUG (DNA:RNA)
RNA: B1 RNA with A27U, G29A, G30U, U31G
DNA 1: CAATCTGAATTCCGGTCTCCC
DNA 2: TGGTGGCTACGACGGGATT
B19: CCCUUGG (DNA:RNA)
RNA: B5 RNA with U26C, G28U, A29U, U30G, C31G
DNA 1: CAATCTGAATTCCGGTCTCCC
DNA 2: TGGTGGCTACGACGGGATT
B20: CGUACAC (DNA:RNA)
RNA: B1 RNA with A25C, A27U, G29C, G30A, U31C
DNA 1: CAATCTGAATTCCGGTCTCCC
DNA 2: TGGTGGCTACGACGGGATT
B21: CAGGUAU (DNA:RNA)
RNA: B5 RNA with U26A, C27G, A29U, U30A, C31U
DNA 1: CAATCTGAATTCCGGTCTCCC
DNA 2: TGGTGGCTACGACGGGATT
B22: CCGACCA (DNA:RNA)
RNA: B1 RNA with A25C, G26C, A27G, G29C, G30C, U31A
DNA 1: CAATCTGAATTCCGGTCTCCC
DNA 2: TGGTGGCTACGACGGGATT
B23: UAACCAA (DNA:RNA)
RNA: B1 RNA with A25U, G26A, A28C, G29C, G30A, U31A
DNA 1: CAATCTGAATTCCGGTCTCCC
DNA 2: TGGTGGCTACGACGGGATT
B24: UCGCUAU (DNA:RNA)
RNA: B1 RNA with A25U, G26C, A27G, A28C, G29U, G30A
DNA 1: CAATCTGAATTCCGGTCTCCC
DNA 2: TGGTGGCTACGACGGGATT
B25: CGCCAAU (DNA:RNA)
RNA: B5 RNA with U26G, G28C, U30A, C31U
DNA 1: CAATCTGAATTCCGGTCTCCC
DNA 2: TGGTGGCTACGACGGGATT
B26: UAAUGAC (DNA:RNA)
RNA: B1 RNA with A25U, G26A, A28U, G30A, U31C
DNA 1: CAATCTGAATTCCGGTCTCCC
DNA 2: TGGTGGCTACGACGGGATT
B27: GCGAAUG (DNA:RNA)
RNA: B5 RNA with C25G, U26C, C27G, G28A, C31G
DNA 1: CAATCTGAATTCCGGTCTCCC
DNA 2: TGGTGGCTACGACGGGATT
B28: GUCUGGA (DNA:RNA)
RNA: B1 RNA with A25G, G26U, A27C, A28U, U31A
DNA 1: CAATCTGAATTCCGGTCTCCC
DNA 2: TGGTGGCTACGACGGGATT
B29: UCAAGUA (DNA:RNA)
RNA: B1 RNA with A25U, G26C, G30U, U31A
DNA 1: CAATCTGAATTCCGGTCTCCC
DNA 2: TGGTGGCTACGACGGGATT
B30: UUGUGGA (DNA:RNA)
RNA: B1 RNA with A25U, G26U, A27G, A28U, U31A
DNA 1: CAATCTGAATTCCGGTCTCCC
DNA 2: TGGTGGCTACGACGGGATT
B31: CUUGGAG (DNA:RNA)
RNA: B5 RNA with C27U, A29G, U30A, C31G
DNA 1: CAATCTGAATTCCGGTCTCCC
DNA 2: TGGTGGCTACGACGGGATT

31 molecules from publication PMC9911399, “Two distinct binding modes provide the RNA-binding protein RbFox with extraordinary sequence specificity” can be followed below.

Positions count from the first letter of the chain named. The list shows a part of the results.

The assay addresses T1, RBFOX1 RRM. The assay is described as follows: EMSA; HiTS-Eq, 1 nM pool, 10 min; buffer printed only for the single-RNA assays: 10 mM Tris pH 7.5, 150 mM NaCl, 3.4 mM EDTA, 0.001% NP-40, 30 C. As to conditions: tags: His6 N-terminal (pET28a); label: 5' 32P. The method, boiled down:
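Purified wild-type or mutant RbFox RRM at increasing concentrations was equilibrated with 1 nM of 5′-radiolabelled RNA carrying 7 randomized nucleotides for 10 min in 50 µL. Unbound RNA was separated by 8% native PAGE and sequenced. Relative association constants came from read-count changes of each RNA species compared with the control reaction, normalised to the cognate motif.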
In general terms: In EMSA bound probe runs differently from free probe, usually more slowly.
As for B1, the binding signal was 0.0126 KA relative to UGCAUGU.
Next, B2: 0.0168 KA relative to UGCAUGU; B3: 0.00783 KA relative to UGCAUGU; B4: 0.0141 KA relative to UGCAUGU.
Consider B5, for which the binding signal is 0.0108 KA relative to UGCAUGU.
Consider B6, for which the binding signal was 0.00757 KA relative to UGCAUGU.
Next, B7: 0.00943 KA relative to UGCAUGU; B8: 0.0137 KA relative to UGCAUGU.
Next, B9: 0.00528 KA relative to UGCAUGU; B10: 0.00648 KA relative to UGCAUGU; B11: 0.0119 KA relative to UGCAUGU.
Next, B12: 0.0243 KA relative to UGCAUGU; B13: 0.0244 KA relative to UGCAUGU; B14: 0.0165 KA relative to UGCAUGU.
With B15, the binding signal was 0.0154 KA relative to UGCAUGU.
Next, B16: 0.0196 KA relative to UGCAUGU; B17: 0.00117 KA relative to UGCAUGU; B18: 0.0141 KA relative to UGCAUGU.
Next, B19: 0.00891 KA relative to UGCAUGU; B20: 0.00199 KA relative to UGCAUGU; B21: 0.00835 KA relative to UGCAUGU.
As for B22, the binding signal is 0.00111 KA relative to UGCAUGU.
To B23 belongs 0.00237 KA relative to UGCAUGU.
To B24 belongs 0.00784 KA relative to UGCAUGU; to B25, 0.00313 KA relative to UGCAUGU; to B26, 0.00631 KA relative to UGCAUGU.
To B27 belongs 0.0369 KA relative to UGCAUGU; to B28, 0.00931 KA relative to UGCAUGU.
With B29, the binding signal was 0.00328 KA relative to UGCAUGU.
To B30 belongs 0.00599 KA relative to UGCAUGU.
Regarding B31, the binding signal was 0.00989 KA relative to UGCAUGU.
